The source of these data is ChEMBL document CHEMBL1268867, “ATPases as drug targets: insights from heat shock proteins 70 and 90” (J Med Chem, 2010).

This data set deals with Nc1ncnc2c1ncn2[C@@H]1O[C@H](COP(=O)(O)OP(=O)(O)OP(=O)(O)O)[C@@H](O)[C@H]1O. Description: Binding affinity to EGFR.

The term Km denotes the concentration of substrate that gives half-maximal velocity. Take “Epidermal growth factor receptor (Homo sapiens) (letters omitted)”: the Km was found to be 17 µM.
